# Test results from PubChem BioAssay AID1159614 (National Center for Advancing Translational Sciences (NCATS), 2016).
# Hit rate of the full screen: of about 45,000 compounds, about 65 (0.1%) were called active. Calls come from the whole dose curve; as a rule, active = well fitted activation curve with a large enough effect; inconclusive = small, poorly fitted or top-dose-only effect; inactive = no such curve, though single readings can be large or run the other way. Some of the results follow.
# Target: Galactocerebrosidase (Homo sapiens) (UniProt P54803)
# Chain of UniProt P54803 (P54803 whole entry, looked up): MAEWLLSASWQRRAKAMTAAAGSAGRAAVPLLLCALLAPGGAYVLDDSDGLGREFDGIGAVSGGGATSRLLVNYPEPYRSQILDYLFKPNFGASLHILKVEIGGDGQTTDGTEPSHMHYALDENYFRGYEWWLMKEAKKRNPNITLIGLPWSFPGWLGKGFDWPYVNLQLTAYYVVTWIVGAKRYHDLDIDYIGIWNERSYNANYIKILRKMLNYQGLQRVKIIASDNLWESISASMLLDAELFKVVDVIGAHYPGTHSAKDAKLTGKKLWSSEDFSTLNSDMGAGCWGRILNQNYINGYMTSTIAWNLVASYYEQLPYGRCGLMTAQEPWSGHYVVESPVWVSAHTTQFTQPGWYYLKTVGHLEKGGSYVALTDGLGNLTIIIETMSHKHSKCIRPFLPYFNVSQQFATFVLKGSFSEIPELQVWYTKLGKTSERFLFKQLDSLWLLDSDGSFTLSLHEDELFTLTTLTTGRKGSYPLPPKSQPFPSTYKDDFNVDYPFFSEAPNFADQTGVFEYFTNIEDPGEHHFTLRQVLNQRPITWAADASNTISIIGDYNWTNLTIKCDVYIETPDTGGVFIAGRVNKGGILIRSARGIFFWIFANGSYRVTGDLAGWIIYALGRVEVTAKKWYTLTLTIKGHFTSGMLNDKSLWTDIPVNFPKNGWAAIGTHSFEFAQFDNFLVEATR
# Assay: A Novel Cell-Based Assay to Identify Small Molecules for B -Galactocerebrosidase; note: 0% is about no effect; nearly all actives have a fitted effect of over 65% in size
# Settings: 145M-Twi-hGALC-G270D cells, HMU-beta-Gal fluorescence, 48 h; series mostly up to 57.5 µM; activation: at the top concentration
# Method in brief: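 qHTS, 1536-well; 145M-Twi-hGALC-G270D cells (WT line also made) in DMEM/F12 + 10% FBS; compound incubation on live cells; HMU-β-gal 0.1 mM final, pH 5.2, NaTC; carbonate stop; fluorescence increase = enhanced residual activity.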
row,SMILES,activation
1,COc1ccc2[nH]cc(CCN=C(NC(=O)c3ccccc3F)Nc3nc(C)cc(C)n3)c2c1,inactive: -5.19%
2,O=c1cc(-c2ccccc2)c2ccc3c(c2o1)CN(Cc1cccc(Cl)c1)CO3,inactive: -23.9%
3,CCC(C)NC(=O)CN1C(=O)c2cccnc2Sc2ccccc21 (centres undefined),inactive: -9.07%
4,COc1cccc(NCc2cccn2-c2nnc(N3CCC(C)CC3)s2)c1,inactive: -23.8%
5,C[C@]12CCC(=O)C=C1[C@@H]1C[C@@H]1[C@H]1[C@@H]3[C@@H]4C[C@@H]4[C@@]4(CCC(=O)O4)[C@@]3(C)CC[C@@H]12,inactive: -19.2%
6,Cc1ccc(-c2cn3cccnc3n2)cc1NC(=O)C(C)(C)Oc1ccc(Cl)cc1,inactive: 18.3%
7,COc1ccc(Cl)cc1NC(=O)c1c(NCc2ccc(C)o2)sc2c1CCC(C)C2 (centres undefined),inactive: -13.8%
8,Cc1c(C(=O)Nc2ccccc2Br)oc2ccc(S(=O)(=O)N3CCCCCC3)cc12,inactive: -14%
9,C=C(C)CSc1nc2sc3c(c2c(=O)n1Cc1ccccc1)CC(C)(CC)OC3 (centres undefined),inactive: -6.09%
10,Cc1nc(N)nc(N)c1-c1ccc(Cl)c(Cl)c1,inactive: -6.75%
11,O=C(O)c1cc(=O)[nH]c(=O)[nH]1,inactive: -3.02%
12,Cn1c(=O)c2sccc2n2c(CCC(=O)N3CCN(c4ccccc4)CC3)nnc12,inactive: -19.7%
13,CCC(=O)Nc1sc2c(c1C(=O)Nc1ccccc1C)CCC(C)C2 (centres undefined),inactive: -15.7%
14,Cc1ccc(-n2nc3ccc(NC(=O)c4cc5ccccc5o4)cc3n2)cc1,inactive: -15.6%
15,COc1ccc2nc(NC(=O)c3ccc(S(=O)(=O)N4CCC(C)CC4)cc3)sc2c1,inactive: -11.2%
16,COC(=O)c1ccccc1NC(=O)c1noc2c1CSc1ccccc1-2,inactive: -3.38%
17,Cc1cccc(C)c1OCCCCn1c(C2CC(=O)N(c3ccc(F)cc3)C2)nc2ccccc21 (centres undefined),inactive: -2.77%
18,CCOC(=O)c1cccc(NC(=O)NCCc2c(C)nn(C)c2C)c1,inactive: -8.83%
19,CCc1ccc(NC(=O)N2CCN(Cc3cc(=O)n4nc(-c5ccccc5OC)sc4n3)CC2)cc1,inactive: -15.6%
20,CCC(Cc1ccccc1)NC(=O)c1oc(=O)c2ccccc2c1-c1ccccc1 (centres undefined),inactive: -9.97%
21,COc1ccc(-c2nc(CSCC(=O)NCCc3ccc(C)cc3)c(C)o2)cc1OC,inactive: -16.7%
22,COC(=O)c1cc2occc2n1CC(=O)Nc1cccc(SC)c1,inactive: -13.1%
23,CCn1c(=N)c(C(=O)NCc2cccnc2)cc2c(=O)n3cc(C)ccc3nc21,inactive: -15.1%
24,CC(=O)NCCCCCC(=O)O,inactive: -12.1%
25,O=S(=O)(NCC(c1ccco1)N1CCN(c2ccc(F)cc2)CC1)c1ccccc1 (centres undefined),inactive: -19.7%

row,SMILES,activation
1,CCOC(=O)Cn1cc2c(c1-c1ccc(Cl)cc1)c(=O)n(C)c(=O)n2C,inactive: -18.7%
2,CCc1noc2nc(C)n(CC(=O)O)c(=O)c12,inactive: -5.68%
3,CN(C(=O)CSc1nc2ccccc2n1CC(=O)NCc1ccc(F)cc1)c1ccc(F)cc1,inactive: -14.5%
4,CCS(=O)(=O)c1ccccc1C(=O)N(Cc1cccnc1)c1nc2cc(C)c(C)cc2s1,inactive: -8.21%
5,CCOc1ccc(CNC(=O)c2ccc(NC(=O)c3nsc4ccccc34)cc2)cc1,inactive: -34.9%
6,O=c1n(CCCN2CCN(c3cccc(Cl)c3)CC2)nc2ccccn12,inactive: -14.9%
7,Cc1c(C(=O)NCc2ccc(Cl)cc2)sc2nc3n(c(=O)c12)CCCC3,inactive: -20.1%
8,COc1ccccc1Cc1nc2ccccc2nc1SCC(=O)NCCc1ccccc1,inactive: -6.32%
9,CCCCN(Cc1ccccc1)S(=O)(=O)c1ccc2c(c1)CC(C)N2C(=O)CC (centres undefined),inactive: 17.2%
10,CCN(CC)CCCNC(=O)c1c(C)oc2ncnc(N3CCOCC3)c12,inactive: -8.8%
11,Cc1ccc(-c2noc(CN(C3CCCCC3)S(=O)(=O)c3ccc(Cl)cc3)n2)cc1,inactive: -10.6%
12,Oc1ccc(Cl)cc1Sc1cc(Cl)ccc1O,inactive: -13.3%
13,COc1ccc(-c2nc3n(n2)C(c2ccccc2F)C(C(=O)Nc2cccnc2)=C(C)N3)cc1OC (centres undefined),inactive: -17.4%
14,Cc1ccc(CNc2ncnc3c2c(-c2ccccc2)cn3-c2cccc(Cl)c2)cc1,inactive: 0.788%
15,Cc1cccc(-n2c(=O)c3c(c4cc(C)ccc4n3C)n(CC(=O)Nc3ccccc3C(F)(F)F)c2=O)c1,inactive: -13.7%
16,c1ccc(C(c2cccs2)c2c[nH]c3ccccc23)cc1 (centres undefined),inactive: -0.519%
17,COCCCNC(=O)c1sc2ncccc2c1-n1cccc1,inactive: -14.9%
18,O=C(Nc1ccc(F)c(Cl)c1)N1CCN2CCCCC2C1 (centres undefined),inactive: -6.73%
19,COc1ccc(C2CC(=O)c3c([nH]c(C(=O)OC4CCC(C)CC4)c3C)C2)cc1OC (centres undefined),inactive: -2.28%
20,CCCCN(C(=O)c1cccc(S(=O)(=O)N2CCCCC2)c1)C1CCS(=O)(=O)C1 (centres undefined),inactive: -11.1%
21,O[C@@H](CNC[C@H](O)[C@H]1CCc2cc(F)ccc2O1)[C@@H]1CCc2cc(F)ccc2O1,inactive: -8.01%
22,Cc1ccc2cccc(NC(=O)c3cccc4ccccc34)c2n1,inactive: -12.6%
23,CCN(CC)c1ccc(-c2nc(-c3ccncc3)no2)cc1[N+](=O)[O-],inactive: -11.9%
24,CCc1cccc2sc(N3CCN(C(=O)C4CC4)CC3)nc12,inactive: -17.2%
25,CCCCNC(=O)CSc1nc2cc3c(cc2c(=O)n1CCCC(=O)NCc1ccc2c(c1)OCO2)OCO3,inactive: -7.42%

row,SMILES,activation
1,Cc1cc(C)cc(C(=O)N2CC(=O)Nc3ccc(C)cc3C2c2ccccc2)c1 (centres undefined),inactive: -2.24%
2,CCN1C(=O)c2cccc3c(S(=O)(=O)Nc4ccc(O)c(C(=O)O)c4)ccc1c23,inactive: -20.7%
3,CCS(=O)(=O)Nc1cc(-c2cn3ccc(C)cc3n2)ccc1C,inactive: -16.9%
4,CCOc1ccccc1C(=O)N(Cc1ccc(N(C)C)cc1)CC1CCCO1 (centres undefined),inactive: -14.2%
5,CC(C)(C)OC(=O)N1CCC(c2c(C(=O)N3CCc4ccccc4C3)cnn2-c2ccc(Cl)cc2)CC1,inactive: -33%
6,Cc1ccc(CNC(=O)C(=O)NCC(c2cccs2)S(=O)(=O)c2ccc(C)cc2)cc1 (centres undefined),inactive: 2.04%
7,COC(=O)c1sccc1S(=O)(=O)N(CC(=O)NCc1ccccc1)c1ccccc1,inactive: -9.8%
8,Cc1ccc(CNC(=O)CSc2ncc(S(=O)(=O)c3ccc(Br)cc3)c(=O)[nH]2)cc1,inactive: -8.88%
9,Nc1c(C(=O)Nc2ccccc2Cl)c2ccccn2c1C(=O)c1ccc(Cl)cc1,inactive: -14.4%
10,COc1ccc(NC(=O)CSc2nc3c([nH]c4ccccc43)c(=O)n2C)cc1,inactive: -1.27%
11,CCn1c(C)c(C2N3CC4(C)CN2CC(CC)(C3)C4=O)c2ccccc21 (centres undefined),inactive: -14%
12,CCc1nn(CC(=O)NCCC(C)C)c(=O)c2cc3occc3n12,inactive: 0.275%
13,COc1ccc(NS(=O)(=O)c2ccc3c(c2)C(C(C)C)C(=O)N3)cc1 (centres undefined),inactive: -23.9%
14,COc1ccc(Nc2ncnc3c2cnn3-c2ccc(C)cc2C)cc1,inactive: -16.9%
15,Cc1nn(C(=O)c2ccccc2F)c(C)c1S(=O)(=O)N1CCOCC1,inactive: -0.47%
16,COc1cccc(CC(=O)Nc2ccc3nc(N4CCC(C)CC4)cc(C)c3c2)c1,inactive: 11%
17,Cc1c(C(=O)N2CCC(C)CC2)c(S(=O)(=O)NCc2ccccc2)c(C)n1C,inactive: -4.68%
18,CCOc1ccccc1NS(=O)(=O)c1c(C)nc2sccn2c1=O,inactive: -6.7%
19,COc1ccccc1C(=O)Nc1ccc2nc(N3CCC(C)CC3)cc(C)c2c1,inactive: -9.32%
20,CC(=O)c1cccc(NC(=O)Cn2c(=O)c(CNc3ccc(C)cc3)cc3cc4c(cc32)OCCO4)c1,inactive: -2.83%
21,Cc1ccc(C(=O)Nc2ccc(Br)cc2)cc1S(=O)(=O)N1CCOCC1,inactive: -34.1%
22,Cc1ccc(-c2sc(C(=O)Nc3ccc(Br)cc3)cc2CC(=O)O)cc1,inactive: -28.2%
23,Cc1cc(C)c(NC(=O)Cn2c(SCC(=O)NCc3ccccc3)nc3ccccc32)c(C)c1,inactive: -24.9%
24,CCn1c(=O)c2cc(C(=O)N(CCCOC(C)C)Cc3ccco3)sc2c2ccccc21,inactive: -19.3%
25,COc1cc(Cl)c(C)cc1NC(=O)CCn1c(=O)c2cccn2c2cccnc21,inactive: -9.14%

row,SMILES,activation
1,CSc1ccc(C2c3[nH]c4ccccc4c3CCN2C(=O)CCc2ccccc2)cc1 (centres undefined),inactive: -10.9%
2,COc1cccc(CNC(=O)C2CCN(S(=O)(=O)c3ccc4c(ccn4C)c3)CC2)c1,inactive: 5.56%
3,COc1ccc(-c2cn3cccnc3n2)cc1NC(=O)c1c(F)cccc1F,inactive: -6.11%
4,COc1ccc(C)cc1Nc1nc2ccccc2c2nnc(C)n12,inactive: -10.1%
5,Cc1cccc(CCNC(=O)CCS(=O)(=O)c2cc3c(cc2Cl)NC(=O)CO3)c1,inactive: 5.41%
6,Cc1ccc(-n2nc3c(=O)n(CCCC(=O)NCCc4ccccc4)nc(C)c3c2C)cc1,inactive: -9.91%
7,CC(C)c1nc2ccc(C(=O)NCc3ccc(N(C)C)cc3)cc2o1,inactive: -14.9%
8,Cc1cc(NS(=O)(=O)c2ccc3nc(-c4ccccc4)[nH]c3c2)ccc1Br,inactive: -9.45%
9,CC(C)C(=O)Nc1ccc2nc(SCC(=O)N3CCOCC3)sc2c1,inactive: -11.5%
10,C=C[C@H]1CN2CC[C@H]1C[C@H]2[C@H](O)c1ccnc2ccc(OC)cc12,inactive: -8.4%
11,COc1ccccc1-c1noc(CSc2nnc(Cc3ccccc3)n2-c2ccc(C)c(C)c2)n1,inactive: -10.7%
12,Cc1ccc(C)n1-c1nnc(N2CCC(C(=O)NCc3ccc(F)cc3)CC2)s1,inactive: -9.33%
13,CCc1nc2cccnc2n1-c1ccc(CC(=O)Nc2ccccc2Cl)cc1,inactive: -9.33%
14,CCN1CCN(C(c2cccc(F)c2)c2c(O)cc(C)n(CCOC)c2=O)CC1 (centres undefined),inactive: -10.8%
15,COc1ccc(Cl)cc1NC(=O)c1cc(S(=O)(=O)N2CCC(C)CC2)cn1C,inactive: -11.9%
16,CCOc1ccc(CNC(=O)CCC(=O)N2CC3CCCN3c3ccccc32)cc1 (centres undefined),inactive: -10.9%
17,Cc1cccc(NC(=O)CSc2nc3c(oc4ccccc43)c(=O)n2Cc2ccco2)c1,inactive: -10.6%
18,O=S(=O)(c1ccc(Br)cc1)c1nnn2c1nc(NC1CCCCCC1)c1sccc12,inactive: -5.94%
19,Cc1ccc(N2CC(c3nnc(NC(=O)c4ccco4)s3)CC2=O)cc1Cl (centres undefined),inactive: -11.2%
20,COc1ccc(CCNC(=O)Cc2c(C)c3cc4c(C(C)(C)C)coc4c(C)c3oc2=O)cc1OC,inactive: -15.3%
21,Cc1cc(C)c2c(c1)NC(=O)C2(O)c1c[nH]c2ccccc12 (centres undefined),inactive: -14.6%
22,Cc1ccc2c(c1)cc1c(=O)n(Cc3cccc(Cl)c3)nc(C)n12,inactive: -11.3%
23,CC(C)c1ccc(C2Sc3ccccc3NC3=C2C(=O)c2ccccc23)cc1 (centres undefined),inactive: -16.6%
24,Cn1nnnc1SCCCNCc1ccc(Cl)cc1,inactive: -11.6%
